# According to the supplement of paper PMC8728848:
# The other results are listed elsewhere or left out.
# Assays:
# Assay in all cases: glycan array binding signal (z-score within array); higher = stronger binding
# Conditions in all cases: glycan notation: IUPAC condensed, linker removed
# [1] = molecular target: Neu5Ac(a2-3)Gal(b1-3)[Fuc(a1-4)]GlcNAc(b1-3)Gal(b1-3)[Fuc(a1-4)]GlcNAc
# Summary of the method: (§1)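 The Consortium for Functional Glycomics database supplied 3228 glycan arrays, of which those lacking an available protein sequence were dropped. The binding signal, a within-array Z-score, was averaged across arrays of the same protein sequence and across linkers. Negative scores can be read as non-binding.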
# [2] = molecular target: Neu5Ac(a2-3)Gal(b1-3)[Fuc(a1-4)]GlcNAc(b1-3)Gal(b1-4)[Fuc(a1-3)]GlcNAc
# Summary of the method: as §1
# [3] = molecular target: Neu5Ac(a2-3)Gal(b1-3)[GlcNAc(b1-6)]GalNAc
# Summary of the method: as §1
# [4] = molecular target: Neu5Ac(a2-3)Gal(b1-3)[Neu5Ac(a2-3)Gal(b1-4)]GlcNAc
# Summary of the method: as §1
# [5] = molecular target: Neu5Ac(a2-3)Gal(b1-3)[Neu5Ac(a2-6)]GalNAc
# Summary of the method: as §1
# [6] = molecular target: Neu5Ac(a2-3)Gal(b1-3)[Neu5Ac(a2-6)]GlcNAc(b1-3)[Fuc(a1-3)[Gal(b1-4)]GlcNAc(b1-6)]Gal(b1-4)Glc
# Summary of the method: as §1
# [7] = molecular target: Neu5Ac(a2-3)Gal(b1-3)]Neu5Ac(a2-3)Gal(b1-4)]GlcNAc
# Summary of the method: as §1
# [8] = molecular target: Neu5Ac(a2-3)Gal(b1-4)Glc
# Summary of the method: as §1
# [9] = molecular target: Neu5Ac(a2-3)Gal(b1-4)GlcNAc
# Summary of the method: as §1
# [10] = molecular target: Neu5Ac(a2-3)Gal(b1-4)GlcNAc(b1-2)Man
# Summary of the method: as §1
# [11] = molecular target: Neu5Ac(a2-3)Gal(b1-4)GlcNAc(b1-2)Man(a1-3)[GlcNAc(b1-2)Man(b1-4)GlcNAc(b1-2)Man(a1-6)]Man(b1-4)GlcNAc(b1-4)GlcNAc
# Summary of the method: as §1
# [12] = molecular target: Neu5Ac(a2-3)Gal(b1-4)GlcNAc(b1-2)Man(a1-3)[GlcNAc(b1-4)][Neu5Ac(a2-3)Gal(b1-4)GlcNAc(b1-2)Man(a1-6)]Man(b1-4)GlcNAc(b1-4)GlcNAc
# Summary of the method: as §1
# [13] = molecular target: Neu5Ac(a2-3)Gal(b1-4)GlcNAc(b1-2)Man(a1-3)[Neu5Ac(a2-3)Gal(b1-4)GlcNAc(b1-2)Man(a1-6)]Man(b1-4)GlcNAc(b1-4)GlcNAc
# Summary of the method: as §1
# [14] = molecular target: Neu5Ac(a2-3)Gal(b1-4)GlcNAc(b1-2)Man(a1-3)[Neu5Ac(a2-3)Gal(b1-4)GlcNAc(b1-2)Man(a1-6)]Man(b1-4)GlcNAc(b1-4)[Fuc(a1-6)]GlcNAc
# Summary of the method: as §1
# [15] = molecular target: Neu5Ac(a2-3)Gal(b1-4)GlcNAc(b1-2)Man(a1-3)[Neu5Ac(a2-6)Gal(b1-4)GlcNAc(b1-2)Man(a1-6)]Man(b1-4)GlcNAc(b1-4)GlcNAc
# Summary of the method: as §1
# [16] = molecular target: Neu5Ac(a2-3)Gal(b1-4)GlcNAc(b1-2)[Neu5Ac(a2-3)Gal(b1-4)GlcNAc(b1-4)]Man(a1-3)[GlcNAc(b1-4)][Neu5Ac(a2-3)Gal(b1-4)GlcNAc(b1-2)[Neu5Ac(a2-3)Gal(b1-4)GlcNAc(b1-6)]Man(a1-6)]Man(b1-4)GlcNAc(b1-4)GlcNAc
# Summary of the method: as §1
# [17] = molecular target: Neu5Ac(a2-3)Gal(b1-4)GlcNAc(b1-2)[Neu5Ac(a2-3)Gal(b1-4)GlcNAc(b1-4)]Man(a1-3)[GlcNAc(b1-4)][Neu5Ac(a2-3)Gal(b1-4)GlcNAc(b1-4)Man(a1-6)]Man(b1-4)GlcNAc(b1-4)GlcNAc
# Summary of the method: as §1
# [18] = molecular target: Neu5Ac(a2-3)Gal(b1-4)GlcNAc(b1-2)[Neu5Ac(a2-3)Gal(b1-4)GlcNAc(b1-6)]Man(a1-6)[Neu5Ac(a2-3)Gal(b1-4)GlcNAc(b1-2)Man(a1-3)]Man(b1-4)GlcNAc(b1-4)GlcNAc
# Summary of the method: as §1
# [19] = molecular target: Neu5Ac(a2-3)Gal(b1-4)GlcNAc(b1-2)[Neu5Ac(a2-3)Gal(b1-4)GlcNAc(b1-6)]Man(a1-6)[Neu5Ac(a2-3)Gal(b1-4)GlcNAc(b1-2)Man(a1-3)][GlcNAc(b1-4)]Man(b1-4)GlcNAc(b1-4)GlcNAc
# Summary of the method: as §1
# [20] = molecular target: Neu5Ac(a2-3)Gal(b1-4)GlcNAc(b1-3)Gal
# Summary of the method: as §1
# [21] = molecular target: Neu5Ac(a2-3)Gal(b1-4)GlcNAc(b1-3)Gal(b1-3)GlcNAc
# Summary of the method: as §1
# [22] = molecular target: Neu5Ac(a2-3)Gal(b1-4)GlcNAc(b1-3)Gal(b1-4)GlcNAc
# Summary of the method: as §1
# [23] = molecular target: Neu5Ac(a2-3)Gal(b1-4)GlcNAc(b1-3)Gal(b1-4)GlcNAc(b1-2)Man(a1-3)[Neu5Ac(a2-3)Gal(b1-4)GlcNAc(b1-3)Gal(b1-4)GlcNAc(b1-2)Man(a1-6)]Man(b1-4)GlcNAc(b1-4)GlcNAc
# Summary of the method: as §1
# [24] = molecular target: Neu5Ac(a2-3)Gal(b1-4)GlcNAc(b1-3)Gal(b1-4)GlcNAc(b1-3)Gal(b1-4)GlcNAc
# Summary of the method: as §1
# [25] = molecular target: Neu5Ac(a2-3)Gal(b1-4)GlcNAc(b1-3)Gal(b1-4)GlcNAc(b1-3)Gal(b1-4)GlcNAc(b1-2)Man(a1-3)[Neu5Ac(a2-3)Gal(b1-4)GlcNAc(b1-3)Gal(b1-4)GlcNAc(b1-3)Gal(b1-4)GlcNAc(b1-2)Man(a1-6)]GalNAc
# Summary of the method: as §1
# [26] = molecular target: Neu5Ac(a2-3)Gal(b1-4)GlcNAc(b1-3)Gal(b1-4)GlcNAc(b1-3)GalNAc
# Summary of the method: as §1
# [27] = molecular target: Neu5Ac(a2-3)Gal(b1-4)GlcNAc(b1-3)Gal(b1-4)GlcNAc(b1-3)[Neu5Ac(a2-3)Gal(b1-4)GlcNAc(b1-3)Gal(b1-4)GlcNAc(b1-6)]GalNAc
# Summary of the method: as §1
# [28] = molecular target: Neu5Ac(a2-3)Gal(b1-4)GlcNAc(b1-3)Gal(b1-4)GlcNAc(b1-6)[Gal(b1-3)]GalNAc
# Summary of the method: as §1
# [29] = molecular target: Neu5Ac(a2-3)Gal(b1-4)GlcNAc(b1-3)Gal(b1-4)[Fuc(a1-3)]GlcNAc
# Summary of the method: as §1
# [30] = molecular target: Neu5Ac(a2-3)Gal(b1-4)GlcNAc(b1-3)GalNAc
# Summary of the method: as §1
# [31] = molecular target: Neu5Ac(a2-3)Gal(b1-4)GlcNAc(b1-3)[Neu5Ac(a2-3)Gal(b1-4)GlcNAc(b1-6)]GalNAc
# Summary of the method: as §1
# [32] = molecular target: Neu5Ac(a2-3)Gal(b1-4)GlcNAc(b1-6)GalNAc
# Summary of the method: as §1
# [33] = molecular target: Neu5Ac(a2-3)Gal(b1-4)GlcNAc(b1-6)[Gal(b1-3)]GalNAc
# Summary of the method: as §1
# [34] = molecular target: Neu5Ac(a2-3)Gal(b1-4)GlcNAc(b1-6)[Neu5Ac(a2-3)Gal(b1-3)]GalNAc
# Summary of the method: as §1
# [35] = molecular target: Neu5Ac(a2-3)Gal(b1-4)GlcNAc6S
# Summary of the method: as §1
# [36] = molecular target: Neu5Ac(a2-3)Gal(b1-4)[Fuc(a1-3)]GlcNAc
# Summary of the method: as §1
# [37] = molecular target: Neu5Ac(a2-3)Gal(b1-4)[Fuc(a1-3)]GlcNAc(b1-2)Man
# Summary of the method: as §1
# [38] = molecular target: Neu5Ac(a2-3)Gal(b1-4)[Fuc(a1-3)]GlcNAc(b1-3)Gal
# Summary of the method: as §1
binder,measurement,setting,value
rAAL-2 (Agrocybe aegerita) (protein) MTSNVITQDLPIPVASRGFADIVGFGLDGVVIGRNAVNLQPFLAVKNFAQNAGGWLTTKHVRLIADTTGTGKGDIVGFGNAGVYVSVNNGKNTFADPPKMVIANFGYDAGGWRVEKHLRYLADIRKIGRADIIGFGEKGVLVSRNNGGLNFGPATLVLKDFGYDAGGWRLDRHLRFLADVTGNGHLDIVGFGDKHVFISRNNGDGTFAPAKSVIDNFCIDAGGWKIGDHPRFVADLTGDGTADIIGCGKAGCWVALNNGGGVFGQVKLVINDFGTDKGWQAAKHPRFIADLTGNGRGDVVGFGNAGVYVALNNGDGTFQSAKLVLKDFGVQQGWTVSKHRRFVVDLTGDGCADIIGFGEKETLVSYNDGKGNFGPVKALTNDFSFSGGKWAPETTVCWMANLDSSRH,glycan array binding signal (z-score),[1],-0.279
same,glycan array binding signal (z-score),[2],-0.151
same,glycan array binding signal (z-score),[3],-0.225
same,glycan array binding signal (z-score),[4],-0.181
same,glycan array binding signal (z-score),[5],-0.092
same,glycan array binding signal (z-score),[6],-0.107
same,glycan array binding signal (z-score),[7],-0.256
same,glycan array binding signal (z-score),[8],-0.151
same,glycan array binding signal (z-score),[9],-0.177
same,glycan array binding signal (z-score),[10],-0.123
same,glycan array binding signal (z-score),[11],-0.132
same,glycan array binding signal (z-score),[12],-0.314
same,glycan array binding signal (z-score),[13],-0.431
same,glycan array binding signal (z-score),[14],0.355
same,glycan array binding signal (z-score),[15],-0.234
same,glycan array binding signal (z-score),[16],-0.304
same,glycan array binding signal (z-score),[17],-0.303
same,glycan array binding signal (z-score),[18],-0.266
same,glycan array binding signal (z-score),[19],-0.33
same,glycan array binding signal (z-score),[20],-0.222
same,glycan array binding signal (z-score),[21],-0.105
same,glycan array binding signal (z-score),[22],-0.146
same,glycan array binding signal (z-score),[23],-0.02
same,glycan array binding signal (z-score),[24],-0.178
same,glycan array binding signal (z-score),[25],0.284
same,glycan array binding signal (z-score),[26],-0.205
same,glycan array binding signal (z-score),[27],0.13
same,glycan array binding signal (z-score),[28],0.16
same,glycan array binding signal (z-score),[29],-0.159
same,glycan array binding signal (z-score),[30],-0.27
same,glycan array binding signal (z-score),[31],-0.309
same,glycan array binding signal (z-score),[32],-0.253
same,glycan array binding signal (z-score),[33],-0.321
same,glycan array binding signal (z-score),[34],-0.231
same,glycan array binding signal (z-score),[35],-0.122
same,glycan array binding signal (z-score),[36],-0.291
same,glycan array binding signal (z-score),[37],-0.299
same,glycan array binding signal (z-score),[38],-0.432
